# Test results: PubChem BioAssay AID1345083 (National Center for Advancing Translational Sciences (NCATS), 2018)
# The whole screen tested about 94,000 compounds, of which about 6,200 (6.6%) were called active. The shares of active, inactive and inconclusive entries below differ from those in the screen. The call rests on the fitted dose curve; in most records, active means well fitted inhibition curve with a large enough effect; inconclusive means small, poorly fitted or top-dose-only effect; inactive means flat fitted curve, though single readings scatter. Potencies of inconclusive entries are doubtful fits and often do not repeat.
# Test: Cytotoxic Profiling in HEK 293 Cell Line of Diverse Libraries Using Quantitative High-Throughput Screening; further: nearly all actives have a fitted effect of over 60% in size
# Conditions: HEK 293 viability, ATP luminescence (CellTiter-Glo), 48-72 h; series mostly up to 115 µM
# Excerpt: Cell-based phenotypic screening is a commonly used approach to discover biological pathways, novel drug targets, chemical probes and high-quality hit-to-lead molecules. Many hits identified from high-throughput screening campaign are ruled out through a series of follow-up potency, selectivity/specificity, and cytotoxicity assays. Prioritization of molecules with little or no cytotoxicity for a more in-depth downstream evaluation influence the future direction of projects, so cytotoxicity profiling of the screening libraries at early stage is essential for increasing the likelihood of candidate success. In this study, we analyzed results from a cell-based cytotoxicity screening campaign, comprising nearly 10,000 compounds in NCATS annotated libraries, and over 100,000 compounds in a diversity library, evaluated in four normal cell lines (HEK 293, NIH 3T3, CRL-7250 and HaCat) and a cancer cell line (KB 3-1, a HeLa subline) with overall screening outcomes, hit rates, pan-activity and selectivity. For the annotated library, we also examined the primary targets and mechanistic pathways regularly associated with cell death. To our knowledge, this is the first study to use high-throughput screening to profile large libraries for cytotoxicity assessment in both normal and cancer cell lines. In summary, the results generated here constitutes a valuable resource for the scientific community and provides insight on identifying cytotoxic compounds with particular mechanisms of action, and prioritizing compounds with suitable cytotoxicity profile for further evaluation.
# HEK 293 cells were seeded into white 1536-well plates using a Multidrop Combi peristaltic dispenser (ThermoFisher, Waltham, MA) at a density of 250 cells/well in 5 uL of medium respectively. A pintool (Kalypsys) was used to transfer 23 nL of compound solution to the 1536-well assay plates. After 48 or 72 hr incubation at 37 degree Celsius, 5% CO2 and 95% humidity, 2.5 uL of CellTiter-Glo (Promega) was dispensed into each well using a dispenser (Aspect Automation, St. Paul, MN) with solenoid valves (Lee Valves, Westbrook CT). Plates were left at room temperature for 10 min before imaging the ATP-coupled luminescence using a ViewLux microplate imager (PerkinElmer, Waltham, MA).
# Potency means the concentration at half of the fitted maximal effect; tags describe the fitted curve by direction and shape.
row,SMILES,Potency
1,CCN1CCN(C(=O)c2cc(-c3ccc(F)cc3)c3nncn3n2)CC1,inactive
2,COc1ccc(CCc2nc3nccc(-c4cc(OC)c(OC)c(OC)c4)n3n2)cc1,"inconclusive: 100 µM [inhibitor, single point]"
3,CN(CCc1ccccn1)[C@H]1[C@@H]2OC[C@@H](O2)[C@@H](NC(=O)Nc2cccc(C#N)c2)[C@@H]1O,inactive
4,CCc1noc(-c2cccn3c(CNC(=O)c4ccc(C)c(F)c4)nnc23)n1,"inconclusive: 89.1 µM [inhibitor, partial curve, poor fit]"
5,CN1CCN(Cc2ccc(Nc3ncc(-c4cncnc4)c4c3OCC4)cc2)CC1,"inconclusive: 112 µM [inhibitor, single point]"
6,CC1(c2ccccc2)N(Cc2ccccc2F)C(=O)OC12CCN(Cc1c[nH]c3ccccc13)CC2 (stereo not drawn),active: 20 µM
7,O=C1COc2ccc(-c3cncnc3)nc2CN1CCOc1ccccc1,"inconclusive: 126 µM [inhibitor, partial curve, poor fit]"
8,Cc1ccc(C2Cn3nnc(C(=O)N4CCC(C(=O)Nc5ccc(F)c(F)c5)CC4)c3CO2)cc1 (stereo not drawn),"inconclusive: 79.4 µM [inhibitor, partial curve, poor fit]"
9,CCc1cc(=O)n(CC(=O)Nc2ccccc2)c(-c2ccccc2)n1,"inconclusive: 14.1 µM [inhibitor, single point]"
10,COc1ccc(CC(=O)N2CCC(Cc3nc(-c4ccc(F)cc4)no3)CC2)cc1,"inconclusive: 44.7 µM [inhibitor, partial curve, poor fit]"
11,O=C(NCCNC(=O)c1ccc(-c2cccc(C(F)(F)F)c2)cc1)c1ccncc1,active: 39.8 µM
12,Cc1ccc(C2(O)CCN(C(=O)Cc3c[nH]c(=O)[nH]c3=O)CC2)nc1,inactive
13,COC1CN(c2cccc(F)c2)C12CCN(C(=O)C1CCCCC1)CC2 (stereo not drawn),active: 28.2 µM
14,CCn1cc(CN2CCCC23CCN(c2ccc(C(F)(F)F)cn2)CC3)cc1C#N,"inconclusive: 44.7 µM [inhibitor, partial curve, poor fit]"
15,CC(=O)Nc1cccc(-c2nc(-c3nnn4c3COC(c3ccc(C)cc3)C4)no2)c1 (stereo not drawn),inactive
16,COCCNC(=O)C1(C)CCc2cnc(Nc3cccc(OC)c3)nc21 (stereo not drawn),"inconclusive: 100 µM [inhibitor, partial curve, poor fit]"
17,Cc1ccccc1NC(=O)Cn1c(C)cc2nc3n(c(=O)c21)CCCCC3,inactive
18,Cn1cc(-c2cnc(Nc3cnccn3)c3c2CCO3)cn1,inactive
19,O=C(NCCc1ccccc1F)c1nc2sccn2c1-c1ccncc1,"inconclusive: 126 µM [inhibitor, single point]"
20,CC1=C[C@@H](CNC(=O)[C@@H]2CCCC[C@@H]2C(=O)O)[C@H](C(C)C)C[C@H]1Cc1nc2ccccc2[nH]1,"inconclusive: 79.4 µM [inhibitor, partial curve, poor fit]"
21,Cc1cccc(C2c3cc(OCc4nc(C(=O)NCC5CC5)co4)ccc3CCN2C(=O)C2CC2)c1 (stereo not drawn),"inconclusive: 22.4 µM [inhibitor, full curve]"

row,SMILES,Potency
1,COc1ccc(NC(=O)C2(C)COCc3cnc(Nc4ccccc4)nc32)cn1 (stereo not drawn),"inconclusive: 100 µM [inhibitor, partial curve]"
2,CN(Cc1cccnc1)c1nc2c(c(=O)[nH]1)CCN(Cc1ccc(F)cc1Cl)CC2,"inconclusive: 28.2 µM [inhibitor, partial curve, poor fit]"
3,CC(C)NC(=O)c1cc(-c2cccc(F)c2)nc2c1cnn2C,"inconclusive: 100 µM [inhibitor, partial curve]"
4,COc1ccc(N2CCC(N3CCC4(CC(=O)NC4=O)C3)CC2)cc1 (stereo not drawn),"inconclusive: 39.8 µM [inhibitor, partial curve, poor fit]"
5,CNC(=O)[C@@H](Cc1ccccc1)N1CCC[C@H]1C(=O)N1CCC1,inactive
6,Cc1cnc(-c2cccnc2)n1C1CCCN(CC2CCCCC2)C1 (stereo not drawn),"inconclusive: 56.2 µM [inhibitor, partial curve, poor fit]"
7,O=C(NC1CCCCC1)c1ccc2nnc(CC3CC3)n2c1,inactive
8,O=C(NCCc1ccc(F)cc1)c1ccc2nnc(-c3cc(F)ccc3F)n2c1,"inconclusive: 10 µM [inhibitor, full curve, poor fit]"
9,COc1ccc(-c2cc(N3CCCC(NC(=O)c4cc(Cl)ccc4OC)C3)n[nH]2)cc1 (stereo not drawn),"inconclusive: 44.7 µM [inhibitor, partial curve, poor fit]"
10,CCn1cc(CN(C)C(=O)CN2C(=O)C(Oc3ccc(F)cc3)C23CCCCC3)c(C)n1 (stereo not drawn),"inconclusive: 50.1 µM [inhibitor, partial curve, poor fit]"
11,O=C(c1ccccc1-c1nn[nH]n1)N1CCN(CCN2CCOCC2)CC1,"inconclusive: 44.7 µM [inhibitor, partial curve, poor fit]"
12,O=C1NCCCCCCN(C(=O)C2CC=CC2)[C@H]2C[C@H](c3nc(Cc4ccccc4)no3)C[C@@H]12,"inconclusive: 22.4 µM [inhibitor, full curve]"
13,CCc1nc2c(c(-c3ccc(OC)cc3)n1)CCN(Cc1ccsc1)CC2,"inconclusive: 100 µM [inhibitor, single point]"
14,Cc1cccc(C(=O)N2CCC(c3noc(COc4cccnc4)n3)CC2)c1,"inconclusive: 35.5 µM [inhibitor, partial curve, poor fit]"
15,Cn1cccc1-c1noc(C2CCN(C(=O)CCc3nc4ccccc4s3)C2)n1 (stereo not drawn),"inconclusive: 50.1 µM [inhibitor, partial curve, poor fit]"
16,CC(C)C[C@@H]1N[C@H](C(=O)N2CCN(c3ncccn3)CC2)Cc2c[nH]c3cccc1c23,active: 79.4 µM
17,CCOC(=O)[C@@H]1[C@@H](OC)C(=O)N(C)C12CCN(C(=O)OCC(C)(C)C)CC2,inactive
18,COc1cccc(C(=O)N2CCC3(CC2)NC(=O)N(c2cccc(F)c2)N3)c1OC,"inconclusive: 79.4 µM [inhibitor, partial curve, poor fit]"
19,c1ccc(-c2ccnc(NCCc3c[nH]c4ccccc34)n2)nc1,"inconclusive: 44.7 µM [inhibitor, partial curve, poor fit]"
20,CC(C)CN1C(=O)c2cccn2CC1CNC(=O)c1ccc2ccccc2n1 (stereo not drawn),"inconclusive: 35.5 µM [inhibitor, partial curve, poor fit]"
21,Cn1nc(C(=O)NCC(=O)N2CCCCCNC(=O)CC2c2ccccc2)c2ccccc21 (stereo not drawn),inactive

row,SMILES,Potency
1,Cc1cc2cc(-c3c(C)noc3C)nc(NCCN(C)C)c2o1,active: 100 µM
2,Cc1ccc(C)c(S(=O)(=O)N2CCCC(Cn3c(C4CC4)nc4cccnc43)C2)c1 (stereo not drawn),active: 39.8 µM
3,O=C(NCc1ccccc1Cl)C1CCN(Cc2ccccc2-c2ccccc2F)CC1,"inconclusive: 31.6 µM [inhibitor, full curve, poor fit]"
4,COc1ccc([S+](=O)([O-])N2CCC3(CC2)OCCN(CC2CC2)C3=O)cc1,"inconclusive: 31.6 µM [inhibitor, partial curve, poor fit]"
5,Cc1ccc(C)c(S(=O)(=O)N2[C@@H]3CC[C@H]2CC(NC(=O)c2ccc(F)cc2)C3)c1 (stereo partly drawn),"inconclusive: 56.2 µM [inhibitor, partial curve, poor fit]"
6,CC(=O)N1CCC(N2CC[C@H](c3nc4ccc(F)cc4[nH]3)C2)CC1,inactive
7,O=C(CC(c1ccccc1)c1ccc(Cl)cc1)N1CCOCC1 (stereo not drawn),"inconclusive: 89.1 µM [inhibitor, single point]"
8,CN1c2cccnc2CN(Cc2ccccn2)CC[C@H]1CO,inactive
9,O=C(C1CCCCC1)N1CCC(C2CCN(Cc3cccc(F)c3F)CC2)C1 (stereo not drawn),active: 79.4 µM
10,O=C(Nc1ccc(Cl)cc1)NC1CCN(CCn2nc3n(c2=O)CCCC3)C1 (stereo not drawn),inactive
11,Cc1ccc(CN2CCOCCNC(=O)CC2)o1,inactive
12,COc1ccccc1-c1cc(C(=O)NCCc2cnc[nH]2)c2c(c1)N(C)CCO2,"inconclusive: 112 µM [inhibitor, partial curve, poor fit]"
13,COc1ccc(CC(=O)NC2CCN(c3cc(-c4ccc(Cl)cc4)[nH]n3)CC2)cc1,"inconclusive: 22.4 µM [inhibitor, full curve, poor fit]"
14,Cn1cc(CN2C[C@H](C(=O)Nc3ccncn3)C[C@H]2c2cccc(C(F)(F)F)c2)cn1,"inconclusive: 25.1 µM [inhibitor, full curve, poor fit]"
15,COCCN1CC(CO)C2(CCN(Cc3ccc(F)c(F)c3)CC2)C1 (stereo not drawn),"inconclusive: 89.1 µM [inhibitor, single point]"
16,Cc1cc(NC(=O)CN2C(=O)NC(c3ccc(Cl)cc3)C3=C2COC3=O)no1 (stereo not drawn),inactive
17,O=C1NC2(CCCN(Cc3cccc4ccccc34)C2)Oc2ccccc21 (stereo not drawn),"inconclusive: 44.7 µM [inhibitor, partial curve, poor fit]"
18,Cc1cn2nc(C(=O)Nc3ccccc3C)cc2c(N(C)Cc2ccccc2)n1,"inconclusive: 44.7 µM [inhibitor, partial curve, poor fit]"
19,Cc1cccc(-c2cccc(CN3CCC(NC(=O)c4ccccc4F)CC3)c2)c1,"inconclusive: 50.1 µM [inhibitor, partial curve, poor fit]"
20,CN(Cc1cccnc1)c1nc2c(c(=O)[nH]1)CCN(Cc1ccc3[nH]ccc3c1)CC2,inactive
21,COCC(=O)N1CCc2nc(-c3ccccc3)nc(-c3ccc(OC)cc3)c2C1,"inconclusive: 50.1 µM [inhibitor, partial curve, poor fit]"
